1 molecule from patent publication US11524046B2, “Biofilm prevention, disruption and treatment with bacteriophage lysin” (priority 2012, dated 2022) can be followed below.

This assay relates to S. aureus (MRSA strain ATCC BAA-42) biofilm. The assay is described as follows: In vivo catheter-based biofilm model, subcutaneous implant in mice, methylene blue staining. The settings on record: single bolus 100 μg, catheters removed 6 hrs post treatment. As for the experimental part:
A catheter-based model was evaluated using catheters situated subcutaneous in flank, intraperitoneal or intramuscular into the thigh (modified from Zhu Y et al (2007) Infect Immunol 75(9):4219-4226). This catheter-based murine model is used to assess the impact of PlySs2 on biofilm viability in vivo. […] The lumen of each 2 inch catheter is inoculated with 200 μl of Tryptic Soy Broth (TSB) supplemented with 0.25% glucose containing 2×10^7 CFU of S. aureus, and biofilms are grown for 72 hours at 37° C. Alternatively, catheters are cut into 2 mm segments and placed in 1.0 ml of inoculated TSB supplemented with 0.25% glucose, and catheter segments are passaged daily into fresh medium for three days prior to implantation. Anesthesia is induced in 6-8 week old Balb/c mice by intraperitoneal injection of 0.15 ml of 100 mg/kg ketamine and 10 mg/kg xylazine (Butler-Schein). Catheter segments are implanted subcutaneously in each flank of the mice, or alternatively into the intraperitoneal space or thigh muscle. Groups of 5-10 mice were implanted with biofilm. Mice are treated with an appropriate amount of PlySs2, antibiotic or vehicle, or combination of PlySs2+antibiotic 1-24 hours post implantation. All mice from each group were humanely sacrificed at 1-4 days post-infection. To quantify biofilm formation, infected catheters were removed immediately after sacrifice, gently washed three times in sterile PBS to remove non-adherent bacteria, and subsequently placed in 5 ml of sterile PBS. Adherent bacteria are removed from the catheters by sonication. The number of recovered bacteria is then quantified by serial dilution and plate counting on the appropriate selective media. […] Methylene Blue stain can then be quantified by destaining in 0.2 ml of 30% acetic acid at room temperature and the absorbance read at 600 nm. The extent of residual biofilm mass is expressed as the absorbance reading at 600 nm divided by the weight of the catheter segment (OD600/gm). […]

B1: PlySs2: bacteriophage lysin derived from Streptococcus suis, amino acid sequence of FIG. 5 / SEQ ID NO: 1; CHAP and SH3 domains (protein, listed as Streptococcus suis)
chain: MTTVNEALNNVRAQVGSGVSVGNGECYALASWYERMISPDATVGLGAGVGWVSGAIGDTISAKNIGSSYNWQANGWTVSTSGPFKAGQIVTLGATPGNPYGHVVIVEAVDGDRLTILEQNYGGKRYPVRNYYSAASYRQQVVHYITPPGTVAQSAPNLAGSRSYRETGTMTVTVDALNVRRAPNTSGEIVAVYKRGESFDYDTVIIDVNGYVWVSYIGGSGKRNYVATGATKDGKRFGNAWGTFK
For the molecule B1, the “methylene blue staining of implanted catheter” value (“methylene blue staining” for short) (intraperitoneally (IP)) is on record as “reduced staining”, the “methylene blue staining” value (intravenously (IV)) is on record as “reduced staining” and the “methylene blue staining” value (subcutaneously (SC)) was “elimination of staining in the catheter to near control levels”.
